# The list shows a part of the results.
# Columns and labels:
# Assay in all cases: glycan array binding signal (z-score within array); higher = stronger binding
# Conditions in all cases: glycan notation: IUPAC condensed, linker removed
# Glc(a1-6)Glc(a1-6)Glc = target: Glc(a1-6)Glc(a1-6)Glc
# In short: (§1)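 From the Consortium for Functional Glycomics database, 3228 arrays were curated, keeping only those whose protein sequence was available. Binding is given as a within-array Z-score averaged across arrays sharing a protein sequence and across linkers. Negative Z-scores can be read as non-binding.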
# [1] = target: Glc(a1-6)Glc(a1-6)Glc(a1-6)Glc
# In short: as §1
# Glc(b1-4)Glc = target: Glc(b1-4)Glc
# In short: as §1
# Glc(b1-6)Glc = target: Glc(b1-6)Glc
# In short: as §1
# GlcA(b1-3)Gal = target: GlcA(b1-3)Gal
# In short: as §1
# GlcA(b1-3)GlcNAc = target: GlcA(b1-3)GlcNAc
# In short: as §1
# GlcA(b1-6)Gal = target: GlcA(b1-6)Gal
# In short: as §1
# [2] = target: GlcA3S(b1-3)Gal(b1-4)GlcNAc(b1-2)Man
# In short: as §1
# [3] = target: GlcA3S(b1-3)Gal(b1-4)GlcNAc(b1-3)Gal(b1-4)Glc
# In short: as §1
# [4] = target: GlcNAc(a1-3)Gal(b1-4)GlcNAc
# In short: as §1
# [5] = target: GlcNAc(a1-4)Gal(b1-3)GlcNAc
# In short: as §1
# [6] = target: GlcNAc(a1-4)Gal(b1-4)GalNAc
# In short: as §1
# [7] = target: GlcNAc(a1-4)Gal(b1-4)GlcNAc
# In short: as §1
# [8] = target: GlcNAc(a1-4)Gal(b1-4)GlcNAc(b1-3)Gal(b1-4)Glc
# In short: as §1
# [9] = target: GlcNAc(a1-4)Gal(b1-4)GlcNAc(b1-3)Gal(b1-4)GlcNAc
# In short: as §1
# [10] = target: GlcNAc(a1-4)Gal(b1-4)GlcNAc(b1-3)Gal(b1-4)GlcNAc(b1-3)Gal(b1-4)GlcNAc
# In short: as §1
# [11] = target: GlcNAc(a1-4)Gal(b1-4)GlcNAc(b1-3)Gal(b1-4)[Fuc(a1-3)]GlcNAc(b1-3)Gal(b1-4)[Fuc(a1-3)]GlcNAc
# In short: as §1
# [12] = target: GlcNAc(a1-6)Gal(b1-4)GlcNAc
# In short: as §1
# [13] = target: GlcNAc(b1-2)Gal(b1-3)GalNAc
# In short: as §1
# [14] = target: GlcNAc(b1-2)Man(a1-3)[GlcNAc(b1-2)Man(a1-6)]Man(b1-4)GlcNAc(b1-4)GlcNAc
# In short: as §1
# [15] = target: GlcNAc(b1-2)Man(a1-3)[GlcNAc(b1-2)Man(a1-6)]Man(b1-4)GlcNAc(b1-4)[Fuc(a1-6)]GlcNAc
# In short: as §1
# [16] = target: GlcNAc(b1-2)Man(a1-3)[GlcNAc(b1-4)][GlcNAc(b1-2)Man(a1-6)]Man(b1-4)GlcNAc(b1-4)GlcNAc
# In short: as §1
# [17] = target: GlcNAc(b1-2)Man(a1-3)[GlcNAc(b1-4)][GlcNAc(b1-2)Man(a1-6)]Man(b1-4)GlcNAc(b1-4)[Fuc(a1-6)]GlcNAc
# In short: as §1
# [18] = target: GlcNAc(b1-2)[GlcNAc(b1-4)]Man(a1-3)[GlcNAc(b1-2)Man(a1-6)]Man(b1-4)GlcNAc(b1-4)GlcNAc
# In short: as §1
# [19] = target: GlcNAc(b1-2)[GlcNAc(b1-4)]Man(a1-3)[GlcNAc(b1-4)][GlcNAc(b1-2)Man(a1-6)]Man(b1-4)GlcNAc(b1-4)GlcNAc
# In short: as §1
# [20] = target: GlcNAc(b1-2)[GlcNAc(b1-4)]Man(a1-3)[GlcNAc(b1-4)][GlcNAc(b1-2)[GlcNAc(b1-6)]Man(a1-6)]Man(b1-4)GlcNAc(b1-4)GlcNAc
# In short: as §1
# [21] = target: GlcNAc(b1-2)[GlcNAc(b1-4)]Man(a1-3)[GlcNAc(b1-4)][GlcNAc(b1-2)[GlcNAc(b1-6)]Man(a1-6)]Man(b1-4)GlcNAc(b1-4)[Fuc(a1-6)]GlcNAc
# In short: as §1
# [22] = target: GlcNAc(b1-2)[GlcNAc(b1-6)]Man(a1-6)[GlcNAc(b1-2)Man(a1-3)]Man(b1-4)GlcNAc(b1-4)GlcNAc
# In short: as §1
# [23] = target: GlcNAc(b1-2)[GlcNAc(b1-6)]Man(a1-6)[GlcNAc(b1-2)Man(a1-3)]Man(b1-4)GlcNAc(b1-4)[Fuc(a1-6)]GlcNAc
# In short: as §1
# [24] = target: GlcNAc(b1-2)[GlcNAc(b1-6)]Man(a1-6)[GlcNAc(b1-4)][GlcNAc(b1-2)Man(a1-3)]Man(b1-4)GlcNAc(b1-4)GlcNAc
# In short: as §1
# GlcNAc(b1-3)Fuc = target: GlcNAc(b1-3)Fuc
# In short: as §1
# GlcNAc(b1-3)Gal = target: GlcNAc(b1-3)Gal
# In short: as §1
# [25] = target: GlcNAc(b1-3)Gal(b1-3)GalNAc
# In short: as §1
# GlcNAc(b1-3)Gal(b1-4)Glc = target: GlcNAc(b1-3)Gal(b1-4)Glc
# In short: as §1
# [26] = target: GlcNAc(b1-3)Gal(b1-4)GlcNAc
# In short: as §1
# [27] = target: GlcNAc(b1-3)Gal(b1-4)GlcNAc(b1-2)Man(a1-3)[GlcNAc(b1-3)Gal(b1-4)GlcNAc(b1-2)Man(a1-6)]Man(b1-4)GlcNAc(b1-4)GlcNAc
# In short: as §1
# [28] = target: GlcNAc(b1-3)Gal(b1-4)GlcNAc(b1-2)Man(a1-3)[GlcNAc(b1-3)Gal(b1-4)GlcNAc(b1-2)Man(a1-6)]Man(b1-4)GlcNAc(b1-4)[Fuc(a1-6)]GlcNAc
# In short: as §1
binder,measurement,setting,value
MGL6A (Homo sapiens) (protein) MTRTYENFQYLENKVKVQGFKNGPLPLQSLLQRLCSGPCHLLLSLGLGLLLLVIICVVGFQNSKFQRDLVTLRTDFSNFTSNTVAEIQALTSQGSSLEETIASLKAEVEGFKQERQAVHSEMLLRVQQLVQDLKKLTCQVATLNNNGEEASTEGTCCPVNWVEHQDSCYWFSHSGMSWAEAEKYCQLKNAHLVVINSREEQNFVQKYLGSAYTWMGLSDPEGAWKWVDGTDYATGFQNWKPGQPDDWQGHGLGGGEDCAHFHPDGRWNDDVCQRPYHWVCEAGLGQTSQESH,glycan array binding signal (z-score),Glc(a1-6)Glc(a1-6)Glc,-0.191
same,glycan array binding signal (z-score),[1],-0.263
same,glycan array binding signal (z-score),Glc(b1-4)Glc,-0.153
same,glycan array binding signal (z-score),Glc(b1-6)Glc,0.08
same,glycan array binding signal (z-score),GlcA(b1-3)Gal,-0.238
same,glycan array binding signal (z-score),GlcA(b1-3)GlcNAc,-0.247
same,glycan array binding signal (z-score),GlcA(b1-6)Gal,-0.32
same,glycan array binding signal (z-score),[2],-0.23
same,glycan array binding signal (z-score),[3],-0.257
same,glycan array binding signal (z-score),[4],-0.343
same,glycan array binding signal (z-score),[5],-0.306
same,glycan array binding signal (z-score),[6],-0.178
same,glycan array binding signal (z-score),[7],-0.22
same,glycan array binding signal (z-score),[8],-0.294
same,glycan array binding signal (z-score),[9],-0.138
same,glycan array binding signal (z-score),[10],-0.301
same,glycan array binding signal (z-score),[11],-0.224
same,glycan array binding signal (z-score),[12],-0.295
same,glycan array binding signal (z-score),[13],-0.275
same,glycan array binding signal (z-score),[14],-0.27
same,glycan array binding signal (z-score),[15],-0.274
same,glycan array binding signal (z-score),[16],-0.275
same,glycan array binding signal (z-score),[17],-0.278
same,glycan array binding signal (z-score),[18],-0.252
same,glycan array binding signal (z-score),[19],-0.268
same,glycan array binding signal (z-score),[20],-0.278
same,glycan array binding signal (z-score),[21],-0.248
same,glycan array binding signal (z-score),[22],-0.262
same,glycan array binding signal (z-score),[23],-0.27
same,glycan array binding signal (z-score),[24],-0.278
same,glycan array binding signal (z-score),GlcNAc(b1-3)Fuc,-0.203
same,glycan array binding signal (z-score),GlcNAc(b1-3)Gal,-0.128
same,glycan array binding signal (z-score),[25],-0.197
same,glycan array binding signal (z-score),GlcNAc(b1-3)Gal(b1-4)Glc,-0.269
same,glycan array binding signal (z-score),[26],-0.086
same,glycan array binding signal (z-score),[27],-0.26
same,glycan array binding signal (z-score),[28],-0.285
